# Among all 410,000 compounds or so, about 530 (0.13%) were called active. The inconclusive results got no clear call from the source; some entries with a clear call stand among them for comparison. The call rests on the fitted dose curve; in most records, active means well fitted inhibition curve with a large enough effect; inconclusive means small, poorly fitted or top-dose-only effect, or another doubt; inactive means no such curve, though single readings can be large or run the other way. Where the call is inconclusive, the potency comes from a doubtful curve fit.
# Experiment: qHTS of GLP-1 Receptor Inverse Agonists: Cytotox Screen
# Settings: HEK293 cAMP-luciferase reporter cells, luminescence, 24 h; activity change, negative = inhibition: at 38.3 µM (top of the series) unless noted
# Summary of the method: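 To flag toxic compounds, the library was rerun on cells for 24 hr at 37 deg C and 5% CO2. Viability-linked luminescence was captured 12 min after adding luciferase detection reagent.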
# On the % scale 0 is the no-effect control and ±100 the full control effect; potency means the concentration at half of the fitted maximal effect.
Structure (SMILES),Potency,"activity change, negative = inhibition"
Cc1ccc(SC(CC(=O)c2ccc(C(C)(C)C)cc2)C(=O)O)cc1 (stereo not given),"inconclusive: 31.6 µM [inhibitor, partial curve, poor fit]",–
CN(/N=C/c1ccc(O)cc1O)c1nc(-c2ccccc2)cc(-c2ccccc2)n1,"inconclusive: 28.2 µM [inhibitor, single point]",–
CCCCC(=O)Nc1cccc(-c2nnc(-c3ccccc3)o2)c1,"inconclusive: 14.1 µM [inhibitor, single point]",–
Cc1cccc(-n2cc(CNCCc3nc(C)cc(C)n3)c(-c3cccc(F)c3)n2)c1,"inconclusive: 15.8 µM [inhibitor, single point]",–
Cc1cccc(C)c1NC(=O)C1(C)CCC(=O)N1C1CC1 (stereo not given),inactive,–
CCn1c(CCNC(=O)c2ccc(OC)cc2)nnc1SCc1ccc(Cl)c(Cl)c1,"inconclusive: 28.2 µM [inhibitor, single point]",–
N#C/C(=C(/O)c1ccc(-c2cccc([N+](=O)[O-])c2)o1)c1nc2ccccc2s1,"inconclusive: 12.6 µM [inhibitor, partial curve, poor fit]",–
OC(COCCOc1ccc(Br)cc1)CN1CCN(Cc2ccccc2)CC1 (stereo not given),"inconclusive: 12.6 µM [inhibitor, partial curve, poor fit]",–
CC(=O)c1c(C)nn(-c2ccccc2)c1C,"inconclusive: 31.6 µM [inhibitor, single point]",–
COC(=O)Cc1c[nH]c2cccc(OCC(O)CN(Cc3ccc([N+](=O)[O-])cc3)C(C)(C)C)c12 (stereo not given),"inconclusive: 10 µM [inhibitor, partial curve]",–
COC(=O)C(CC(=O)c1ccc(Br)cc1)n1nc(C)cc1C (stereo not given),inactive,–
c1ccc2c(CNc3ccc(CNc4ncn[nH]4)cc3)cccc2c1,"inconclusive: 31.6 µM [inhibitor, partial curve, poor fit]",–
NC(=O)CC(NC(=O)Cc1ccc(Br)cc1)c1ccc(NCCOc2ccccc2)c([N+](=O)[O-])c1 (stereo not given),"inconclusive: 28.2 µM [inhibitor, single point]",–
Cc1cc(C)c(NC(=O)CSc2nc(=O)n(Cc3ccncc3)c3c2CCC3)c(C)c1,inactive,–
NC(=O)c1ccc(N=Cc2ccc([N+](=O)[O-])s2)cc1,"inconclusive: 11.2 µM [inhibitor, single point]",–
Nc1ccc(O)c2c1C(=O)c1ccccc1C2=O,"inconclusive: 31.6 µM [inhibitor, single point]",–
Cc1ccc(/C=C2/CNC/C(=C/c3ccc(C)cc3)C2=O)cc1,"inconclusive: 5.01 µM [inhibitor, full curve]",–
CCN(CC)CCNc1oc(-c2ccccc2)nc1S(=O)(=O)c1ccccc1,"inconclusive: 12.6 µM [inhibitor, single point]",–
COCCNC(=S)N/N=C(\C)c1cccc(OC)c1,"inconclusive: 7.08 µM [inhibitor, partial curve, poor fit]",–
CN1CCN(C2=Cc3ccccc3Sc3cc(F)c(Cl)cc32)CC1,"inconclusive: 28.2 µM [inhibitor, single point]",–
COc1ccc(-c2csc(NC(=S)NC(=O)c3ccc(S(=O)(=O)N(C)C)cc3)n2)cc1OC,"inconclusive: 28.2 µM [inhibitor, single point]",–
O=C(Nc1nnc(C2=COCCO2)o1)c1ccc(Cl)cc1,"inconclusive: 6.31 µM [inhibitor, partial curve, poor fit]",–

Structure (SMILES),Potency,"activity change, negative = inhibition"
S=C(NCCCN1CCOCC1)N1CCN(c2nc(-c3ccc(Cl)cc3)cs2)CC1,"inconclusive: 10 µM [inhibitor, partial curve, poor fit]",–
O=C1c2[nH]c3ccccc3c2CC1N1C(=O)c2ccccc2C1=O (stereo not given),inactive,–
O=C(N/N=C/c1ccccn1)c1cc(-c2ccc(Cl)cc2)nc2ccccc12,"inconclusive: 3.55 µM [inhibitor, partial curve]",–
CCOC(=O)C1(Cc2ccccc2)CCCN(C2CCN(C(C)=O)CC2)C1 (stereo not given),inactive,–
COc1ccccc1CCN1CCCC(CN(C)CC(C)(C)CO)C1 (stereo not given),"inconclusive: 22.4 µM [inhibitor, single point]",–
CCc1nc(SCC(=O)N2CC(=O)Nc3ccccc32)c2c(C)c(C)sc2n1,"inconclusive: 2.82 µM [inhibitor, full curve, poor fit]",–
CCC1=NN(C(=O)c2ccc(C)cc2)C(O)(c2ccc(Br)cc2)C1 (stereo not given),"inconclusive: 22.4 µM [inhibitor, partial curve, poor fit]",–
Cc1ccccc1-c1nc2ccccc2c(=O)n1C1CCS(=O)(=O)C1 (stereo not given),"inconclusive: 4.47 µM [inhibitor, partial curve, poor fit]",–
CCCCN1C(=O)C(O)(CC(=O)c2ccc(CC)cc2)c2cc(Br)ccc21 (stereo not given),"inconclusive: 28.2 µM [inhibitor, single point]",–
COc1ccc(NC(=S)NCc2ccccc2Cl)c(OC)c1,"inconclusive: 7.94 µM [inhibitor, single point]",–
COc1ccc(C(=O)C2CCCN(Cc3cccn3-c3nccs3)C2)cc1F (stereo not given),"inconclusive: 17.8 µM [inhibitor, single point]",–
CC(C)(C)c1cc(CSC(=S)NC2CCS(=O)(=O)C2)c(Br)c(C(C)(C)C)c1 (stereo not given),"inconclusive: 11.2 µM [inhibitor, single point]",–
OC(COC(c1ccc(F)cc1)c1ccc(F)cc1)CN1CCc2ccccc2C1 (stereo not given),inactive,–
Cc1[nH]n(C(N)=S)c(=O)c1N=Nc1cc(C(F)(F)F)ccc1Cl,–,inconclusive: -74.6% [inhibitor]
CCCCCCC1CC(CSC(=N)N)OC1=O (stereo not given),"inconclusive: 31.6 µM [inhibitor, single point]",–
Cc1ccc2c(CN3C(=O)NC4(CCCCC4)C3=O)cc(=O)oc2c1C,"inconclusive: 11.2 µM [inhibitor, partial curve, poor fit]",–
CCOC(=O)CCCNC(=O)c1cncc(O)c1,inactive,–
CCCCCCCCC(c1nc2ccccc2[nH]1)N1CCN=C1c1cc2ccccc2[nH]1 (stereo not given),"inconclusive: 28.2 µM [inhibitor, single point]",–
COc1nc(/C=C/N(C)C)c([N+](=O)[O-])c(OC)n1,"inconclusive: 28.2 µM [inhibitor, single point]",–
FC(F)(Cl)c1nnc2ccc(Cl)nn12,"inconclusive: 28.2 µM [inhibitor, single point]",–
CC(C)c1ccc(OCC(=O)Nc2ccc(S(=O)(=O)Nc3ncccn3)cc2)cc1,inactive,–
O=C(Nc1nc(-c2ccc3c(c2)OCO3)cs1)c1ccncc1,"inconclusive: 14.1 µM [inhibitor, single point]",–

Structure (SMILES),Potency,"activity change, negative = inhibition"
CC1=NNC(=O)/C1=C\c1cn(-c2ccccc2)nc1-c1ccc(Cl)cc1,inactive,–
CN(Cc1nc2ccccc2c(=O)[nH]1)Cc1nc2ccsc2c(=O)[nH]1,active: 12.6 µM,–
C=CCn1c(CSc2ccc(C)cc2)n[nH]c1=S,"inconclusive: 28.2 µM [inhibitor, single point]",–
COc1ccc(CNC(=O)CCCCCn2c(=O)[nH]c3ccccc3c2=O)cc1,inactive,–
COC(=O)c1ccc(OCC(=O)c2ccccc2)cc1,inactive,–
CCc1ccc(OCC(=O)NCC(c2ccc(Cl)cc2)N2CCCCC2)cc1 (stereo not given),"inconclusive: 25.1 µM [inhibitor, single point]",–
COc1ccccc1Nc1nc2c(S(=O)(=O)c3ccc(C(C)C)cc3)nnn2c2ccsc12,inactive,–
COC(=O)c1c(NC(=O)c2ccc([N+](=O)[O-])o2)sc2c1CCN(C(C)C)C2,"inconclusive: 17.8 µM [inhibitor, single point]",–
CNC(=O)COC(=O)CCC(=O)c1ccc(Cl)cc1,inactive,–
O=C(CNC(=O)c1ccccc1)c1ccccc1,"inconclusive: 3.55 µM [inhibitor, partial curve, poor fit]",–
O=C(CC(c1cccs1)N1Cc2ccccc2C1=O)Nc1ccc(Cl)cc1 (stereo not given),inactive,–
CN(C)CCN(C)Cc1ccccc1Sc1cccc2ccccc12,"inconclusive: 11.2 µM [inhibitor, single point]",–
CCOC(=O)C1CCCN(CC(=O)Nc2c(C(=O)OC)[nH]c3ccc(C)cc23)C1 (stereo not given),"inconclusive: 3.16 µM [inhibitor, full curve, poor fit]",–
O=[N+]([O-])c1ccc(N/N=C/c2sc(N3CCOCC3)nc2-c2ccccc2)c(S(=O)(=O)Nc2ccccc2Cl)c1,"inconclusive: 3.16 µM [inhibitor, full curve]",–
CN1CCN(c2nc(-c3cccs3)nc3ccccc23)CC1,"inconclusive: 28.2 µM [inhibitor, partial curve, poor fit]",–
CCN(c1cccc(C)c1)C(CNS(=O)(=O)c1ccccc1)c1ccccc1 (stereo not given),inactive,–
Oc1ccc(-c2nc3ccccc3nc2-c2ccc(O)cc2O)c(O)c1,"inconclusive: 12.6 µM [inhibitor, single point]",–
Cn1c(N2CCOCC2)c(/C=N/OC(=O)c2ccc(F)cc2)c2ccccc21,"inconclusive: 0.501 µM [inhibitor, full curve, poor fit]",–
C/C(=N\NC(=O)c1cccc(Cl)c1)C1C(=O)c2ccccc2C1=O,"inconclusive: 3.55 µM [inhibitor, partial curve, poor fit]",–
O=C(c1ccccc1)N1CCC(c2nc(-c3ccc(S(=O)(=O)NCC4CCCO4)cc3)no2)CC1 (stereo not given),"inconclusive: 3.16 µM [inhibitor, partial curve, poor fit]",–
Nc1cc2c(cc1Br)[nH]c(=O)c1ccccc12,"inconclusive: 22.4 µM [inhibitor, single point]",–

# — PubChem BioAssay AID624418 (National Center for Advancing Translational Sciences (NCATS), 2012)
